Hit rate of the full screen: of about 310,000 compounds, about 2,200 (0.71%) showed an effect of 50% or more. Effects have a minus sign here. The list shows a part of the results.
The molecules below were run against human ether-à-go-go-related gene (hERG) potassium channel (human, UniProt Q12809) (assay: primary screen, population patch clamp on CHO cells stably expressing hERG).
human ether-à-go-go-related gene (hERG) potassium channel, sequence (Q12809 whole entry, looked up): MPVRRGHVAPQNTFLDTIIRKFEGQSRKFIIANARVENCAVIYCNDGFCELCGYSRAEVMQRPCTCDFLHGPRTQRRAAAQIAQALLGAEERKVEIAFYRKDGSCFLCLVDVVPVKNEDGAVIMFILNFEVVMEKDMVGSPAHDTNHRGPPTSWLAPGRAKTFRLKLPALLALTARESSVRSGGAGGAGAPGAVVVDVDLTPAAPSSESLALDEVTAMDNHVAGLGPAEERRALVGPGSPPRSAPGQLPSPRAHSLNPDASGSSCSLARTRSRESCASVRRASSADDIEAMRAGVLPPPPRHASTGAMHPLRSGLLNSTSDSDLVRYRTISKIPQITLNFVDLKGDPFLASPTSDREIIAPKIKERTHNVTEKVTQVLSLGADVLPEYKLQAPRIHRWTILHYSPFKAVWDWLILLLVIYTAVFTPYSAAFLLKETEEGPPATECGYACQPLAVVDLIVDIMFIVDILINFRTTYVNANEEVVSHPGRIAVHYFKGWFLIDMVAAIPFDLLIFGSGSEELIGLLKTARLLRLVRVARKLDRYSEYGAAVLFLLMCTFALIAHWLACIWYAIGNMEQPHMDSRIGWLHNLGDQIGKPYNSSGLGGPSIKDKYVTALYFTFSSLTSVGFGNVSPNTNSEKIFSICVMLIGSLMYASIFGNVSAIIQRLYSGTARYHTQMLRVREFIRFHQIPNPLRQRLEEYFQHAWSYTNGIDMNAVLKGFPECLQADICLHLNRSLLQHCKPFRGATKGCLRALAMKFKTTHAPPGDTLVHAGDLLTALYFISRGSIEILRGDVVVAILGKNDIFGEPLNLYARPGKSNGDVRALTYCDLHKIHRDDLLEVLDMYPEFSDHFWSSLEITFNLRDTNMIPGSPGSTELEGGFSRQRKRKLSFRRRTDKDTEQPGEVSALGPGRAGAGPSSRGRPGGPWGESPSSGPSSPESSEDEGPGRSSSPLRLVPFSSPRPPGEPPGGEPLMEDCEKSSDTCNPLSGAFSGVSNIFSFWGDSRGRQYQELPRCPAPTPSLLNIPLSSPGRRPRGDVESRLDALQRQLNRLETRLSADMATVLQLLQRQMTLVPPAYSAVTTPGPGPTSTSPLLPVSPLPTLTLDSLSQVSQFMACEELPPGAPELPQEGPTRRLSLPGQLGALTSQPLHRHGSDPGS

Question: CS(=O)(=O)N1CCN(C(=O)c2c(F)cccc2F)CC1 was tested. Which “hERG current change (%, negative = inhibition) at 1uM” value did it give?
Answer: 3.57%

Question: CC1CCN(C(=O)/C(=C/c2ccccc2Cl)c2ccccc2)CC1 was tested. Which “hERG current change (%, negative = inhibition) at 1uM” value did it give?
Answer: 2.81%

Question: With Cc1c(Cc2ccc3c(c2)OCO3)sc(NC(=O)c2ccc3ccccc3c2)c1C(N)=O as the molecule, how does the “hERG current change (%, negative = inhibition) at 1uM” value read?
Answer: -3.82%

Question: With COc1ccc(C)cc1NC(=O)CCN1CCN(c2ccccc2F)CC1.Cl as the molecule, how does the “hERG current change (%, negative = inhibition) at 1uM” value read?
Answer: 3.59%

Question: Which “hERG current change (%, negative = inhibition) at 1uM” value does the source give for O=C(Nc1ccccc1)Nc1scc2c1c(=O)oc1ccccc12 here?
Answer: 1.74%

Question: N/C(=N\OC(=O)c1ccc(OCC(F)(F)F)nc1)c1ccc(Cl)cc1 was tested. Which “hERG current change (%, negative = inhibition) at 1uM” value did it give?
Answer: 15.2%

Question: How did the “hERG current change (%, negative = inhibition) at 1uM” value turn out when CN(C)S(=O)(=O)NCC1CCCN(Cc2cc3ccccc3s2)C1 (stereo not drawn) was run?
Answer: 7.45%

Question: With COc1ccccc1CNC(=O)CCC(=O)Nc1nnc(C(C)C)s1 as the molecule, how does the “hERG current change (%, negative = inhibition) at 1uM” value read?
Answer: 6.47%

Question: For Cc1nc(-c2ccccc2)sc1-c1nc(-c2ccccc2)ncc1S(=O)(=O)c1ccccc1, which “hERG current change (%, negative = inhibition) at 1uM” value is on record?
Answer: 5.21%

Question: COc1cc(C(=O)Nc2ccc(N(C)C)cc2)cc(OC)c1OC was tested. Which “hERG current change (%, negative = inhibition) at 1uM” value did it give?
Answer: 16.8%

Question: How did the “hERG current change (%, negative = inhibition) at 1uM” value turn out when N#CC(c1ccccn1)(c1ncc(C(F)(F)F)cc1Cl)N1CCOCC1 (stereo not drawn) was run?
Answer: 9.65%

Question: How did the “hERG current change (%, negative = inhibition) at 1uM” value turn out when CN(C)c1ccc2c3c(cccc13)C(=O)N(c1ccccc1)C2=O was run?
Answer: 13.8%

Question: CC(=O)Nc1cccc(C(=O)/C=C/c2ccc(/C=C/C(=O)c3cccc(NC(C)=O)c3)cc2)c1 was tested. Which “hERG current change (%, negative = inhibition) at 1uM” value did it give?
Answer: -0.717%

Question: For N#CCc1ccccc1C(=O)OCC(=O)N(Cc1ccccc1)Cc1ccccc1, which “hERG current change (%, negative = inhibition) at 1uM” value is on record?
Answer: 2.5%

Question: With CC(=O)Oc1ccc([N+](=O)[O-])cc1N1C(=O)c2ccccc2C1=O as the molecule, how does the “hERG current change (%, negative = inhibition) at 1uM” value read?
Answer: 6.82%

Question: COc1cccc(C(=O)O/N=C(\N)Cc2ccc(Cl)cc2)c1 was tested. Which “hERG current change (%, negative = inhibition) at 1uM” value did it give?
Answer: 2.67%

Question: With COc1ccc(S(=O)(=O)NCc2cccnc2)cc1Br as the molecule, how does the “hERG current change (%, negative = inhibition) at 1uM” value read?
Answer: 11.1%

Question: Which “hERG current change (%, negative = inhibition) at 1uM” value does the source give for N/C(=N\OC(=O)c1ccccc1Cl)c1ccccn1 here?
Answer: 14.1%

Question: How did the “hERG current change (%, negative = inhibition) at 1uM” value turn out when O=C(COc1ncnc2ccccc12)NC1CCS(=O)(=O)C1 (stereo not drawn) was run?
Answer: 13%

Question: For CC(C)CCSc1cc(NCCO)c([N+](=O)[O-])c2nonc12, which “hERG current change (%, negative = inhibition) at 1uM” value is on record?
Answer: 7.95%

Question: How did the “hERG current change (%, negative = inhibition) at 1uM” value turn out when C=CCN(C(=O)CNC(=O)c1ccco1)C(C(=O)NC1CCCC1)c1cccs1 (stereo not drawn) was run?
Answer: 11.2%

Question: Which “hERG current change (%, negative = inhibition) at 1uM” value does the source give for CCn1cc(C(=O)N2CCN(c3ccccn3)CC2)c(=O)c2cc(S(=O)(=O)N(C)C3CCCCC3)ccc21 here?
Answer: -8.11%

Question: CCC(=O)c1ccc(OCC(=O)OCC(=O)c2c(N)n(C)c(=O)n(C)c2=O)cc1 was tested. Which “hERG current change (%, negative = inhibition) at 1uM” value did it give?
Answer: 8.97%

Question: For Cc1cc(C)n(-c2ccc(C(=O)OCC(=O)NC(c3ccccc3)c3ccccc3)cc2)n1, which “hERG current change (%, negative = inhibition) at 1uM” value is on record?
Answer: 24.9%

Reference: article PMC4336329 (PLoS ONE, 2015)
